# Reference: the antibiotic and cytotoxicity screens of Wong et al. (2023)
# The list shows a part of the results.
# Tested on: HSkMC (human skeletal muscle cells)
# Assay: cytotoxicity call (relative viability < 0.9)
# Conditions: 10 µM
row,Compound,cytotoxicity call
1,C[C@H]1CN([C@@H](C)CO)C(=O)Cc2cc(NC(=O)Cn3cnnn3)ccc2O[C@H]1CN(C)S(=O)(=O)c1cn(C)cn1,inactive
2,C[C@@H]1CN([C@@H](C)CO)S(=O)(=O)c2ccc(C#CCN(C)C)cc2O[C@@H]1CN(C)C(=O)CN(C)C,inactive
3,C[C@@H]1CN([C@@H](C)CO)C(=O)c2cc(NS(C)(=O)=O)ccc2O[C@H]1CN(C)Cc1ccc2c(c1)OCO2,inactive
4,Cc1ccc(S(=O)(=O)Nc2cccc3c2O[C@H](CN(C)Cc2ccc(Cl)c(Cl)c2)[C@@H](C)CN([C@H](C)CO)C3=O)cc1,inactive
5,Cc1noc(C)c1NC(=O)Nc1ccc2c(c1)CC(=O)N([C@H](C)CO)C[C@H](C)[C@@H](CN(C)S(=O)(=O)c1ccccc1)O2,inactive
6,COCC(=O)Nc1ccc2c(c1)C(=O)N(C)C[C@@H](OC)[C@H](C)CN(C(=O)c1ccccc1F)[C@H](C)CO2,inactive
7,C[N+](C)(C)CCCCNC(=O)[C@@H]1C[C@@H]2C(=O)NCC(=O)N2[C@@H]1c1ccc(O)cc1,inactive
8,C[C@@H]1CN([C@H](C)CO)C(=O)c2cccc(NC(=O)CCCCCC(=O)Nc3ccccc3N)c2O[C@H]1CN(C)C(=O)Nc1ccccc1,inactive
9,C[C@H]1CN([C@@H](C)CO)C(=O)c2cc(C#CC3(O)CCCC3)cnc2O[C@@H]1CN(C)C(=O)C1CCOCC1,inactive
10,O=c1ccc2cc3ccoc3cc2o1,inactive
11,Cl.c1ccc2c(CC3=NCCN3)cccc2c1,inactive
12,Cc1noc(C)c1NC(=O)N(C)C[C@@H]1OCCCC[C@@H](C)Oc2ccc(NS(=O)(=O)c3ccccc3)cc2C(=O)N([C@H](C)CO)C[C@H]1C,inactive
13,NC[C@](O)(c1cccs1)C1CC1,inactive
14,C[C@@H]1CCCCO[C@H](CN(C)Cc2ccccc2)[C@H](C)CN([C@H](C)CO)C(=O)c2cc(NC(=O)Cc3ccccc3)ccc2O1,inactive
15,C[C@H](CO)N1C[C@H](C)[C@@H](CN(C)S(=O)(=O)c2cn(C)cn2)Oc2ccc(NS(C)(=O)=O)cc2CC1=O,inactive
16,C[C@@H]1CCCCO[C@@H](CN(C)C(=O)c2ccccc2)[C@@H](C)CN([C@H](C)CO)C(=O)c2cc(NS(=O)(=O)c3ccc(F)cc3)ccc2O1,inactive
17,CN(C)CC(=O)N[C@@H]1CC[C@@H](CCNC(=O)C2CC2)O[C@H]1CO,inactive
18,C[C@@H]1CN([C@@H](C)CO)C(=O)c2cc(NC(=O)Nc3ccc4c(c3)OCO4)ccc2O[C@H]1CN(C)Cc1ccc(-c2ccccc2)cc1,inactive
19,c1ccc(-n2ncc3c2ncn2nnnc32)cc1,inactive
20,C=CCOC(=O)N(C)C[C@@H]1OCCCC[C@H](C)Oc2ccc(NC(=O)Nc3ccccc3)cc2C(=O)N([C@@H](C)CO)C[C@H]1C,inactive
21,CCCNC(=O)N(C)C[C@@H]1Oc2ncc(-c3ccc(C(=O)N(C)C)cc3)cc2C(=O)N([C@H](C)CO)C[C@@H]1C,inactive
22,C[C@H]1CN([C@@H](C)CO)C(=O)Cc2cc(NS(C)(=O)=O)ccc2O[C@@H]1CN(C)S(C)(=O)=O,inactive
23,COc1cccc(NC(=O)N(C)C[C@@H]2OCc3ccccc3-c3c(n(C)c4ccccc34)C(=O)N([C@H](C)CO)C[C@H]2C)c1,inactive
24,COCCOC(=O)N1C(=O)[C@@]2(c3cc(C#Cc4ccc(OC)cc4)ccc31)[C@H](c1ccc(O)cc1)N1[C@H](c3ccccc3)[C@H](c3ccccc3)OC(=O)[C@H]1[C@@H]2C(N)=O,inactive
25,COc1cccc(S(=O)(=O)N(C)C[C@H]2Oc3cc(C#CCN(C)C)ccc3S(=O)(=O)N([C@H](C)CO)C[C@@H]2C)c1,inactive
26,O=C(O)C(O)C(O)C(=O)O.OCc1cccnc1 (centres undefined),inactive
27,Cc1noc(C)c1NC(=O)Nc1ccc2c(c1)C(=O)N([C@H](C)CO)C[C@H](C)[C@H](CN(C)C(=O)Nc1ccc(C(F)(F)F)cc1)O2,inactive
28,CS(=O)(=O)c1ccc(C(O)C(CF)NC(=O)C(Cl)Cl)cc1 (centres undefined),inactive
29,COc1cc(N2CC[C@H]3O[C@@H](C(=O)NCCN(C)C)C[C@H]32)ncn1,inactive

# Tested on: HepG2
# Assay: cytotoxicity call (relative viability < 0.9)
# Conditions: 10 µM
row,Compound,cytotoxicity call
1,O=C1NC(=O)[C@@]2(CCOc3ccc(F)cc32)N1,inactive
2,C[C@@H]1CN([C@H](C)CO)C(=O)c2cc(NS(=O)(=O)c3cn(C)cn3)ccc2O[C@H]1CN(C)C(=O)Nc1ccc(F)cc1,inactive
3,C[C@@H]1CCCCO[C@@H](CN(C)Cc2ccc3c(c2)OCO3)[C@@H](C)CN([C@H](C)CO)C(=O)c2cc(NC(=O)C3CCCCC3)ccc2O1,inactive
4,C[C@@H]1CN([C@@H](C)CO)C(=O)c2cc(NS(C)(=O)=O)ccc2O[C@@H]1CN(C)Cc1ccc(C(F)(F)F)cc1,inactive
5,COc1ccc(S(=O)(=O)N(C)C[C@H]2Oc3ccc(NS(C)(=O)=O)cc3CC(=O)N([C@@H](C)CO)C[C@@H]2C)cc1,inactive
